# Results published in PubChem BioAssay AID2451 (National Center for Advancing Translational Sciences (NCATS), 2010).
# In all, about 290,000 compounds went through this assay and about 2,100 (0.72%) were called active. The shares of active, inactive and inconclusive entries below differ from those in the screen. Calls follow the shape of the dose curve; as a rule, active = well fitted inhibition curve with a large enough effect; inconclusive = small, poorly fitted or top-dose-only effect, or effect the other way; inactive = flat fitted curve, though single readings scatter. Where the call is inconclusive, the potency comes from a doubtful curve fit.
# Biological target: Fructose-bisphosphate aldolase (Giardia intestinalis (strain ATCC 50803 / WB clone C6)) (UniProt A8B2U2)
# Test: qHTS Assay for Inhibitors of Fructose-1,6-bisphosphate Aldolase from Giardia Lamblia; also: nearly all actives have a fitted effect of over 55% in size
# Conditions: purified Giardia FBPA; series mostly up to 59.6 µM
# Outline: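 40 nM FBPA preincubated 10 min at RT with compound (up to 57.5 uM final), then substrate plus GAPDH/TPI/NAD/arsenate coupling and diaphorase/resazurin added. Fluorescence read after 20 min at RT, 525/598 nm.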
# Potency is read from the fitted curve at half-maximal effect; tags tell the direction and shape of the fitted curve.
# Sequence of UniProt A8B2U2 (A8B2U2 whole entry, looked up): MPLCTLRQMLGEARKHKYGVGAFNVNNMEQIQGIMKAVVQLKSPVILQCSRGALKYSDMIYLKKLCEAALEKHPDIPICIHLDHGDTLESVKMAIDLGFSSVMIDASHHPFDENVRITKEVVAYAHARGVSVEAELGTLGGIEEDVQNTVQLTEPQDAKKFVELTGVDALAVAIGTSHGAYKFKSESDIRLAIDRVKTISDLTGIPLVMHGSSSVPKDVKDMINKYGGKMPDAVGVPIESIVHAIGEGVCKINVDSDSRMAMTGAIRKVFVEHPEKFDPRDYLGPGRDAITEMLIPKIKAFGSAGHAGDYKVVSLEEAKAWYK
row,Structure (SMILES),Potency
1,C=CCn1c(-c2cccc(OC)c2OC)n[nH]c1=S,"inconclusive: 1.99 µM [inhibitor, full curve, poor fit]"
2,COc1cccc(/C=N/N2CCN(C)CC2)c1,inactive
3,O=[N+]([O-])c1c(Nc2ccc(O)cc2)cc(N2CCOCC2)c2nonc12,"inconclusive: 3.97 µM [inhibitor, single point]"
4,CCc1cccc(NS(=O)(=O)c2c(C)n[nH]c2C)c1,"inconclusive: 19.9 µM [inhibitor, partial curve]"
5,N=c1c2c(-c3ccccc3)c(-c3ccccc3)n(Cc3ccco3)c2ncn1Cc1ccccc1,inactive
6,CCN(CC(=O)NC(=O)NCc1ccccc1)Cc1nc2ccccc2c(=O)[nH]1,active: 17.7 µM
7,O=C(COc1ccccc1)Nc1nnc(S(=O)(=O)N2CCCCCC2)s1,"inconclusive: 39.8 µM [inhibitor, single point]"
8,COc1ccccc1CNC1CCN(Cc2ccccc2)CC1,"inconclusive: 31.6 µM [inhibitor, partial curve]"
9,COc1cccc(/C=N/NC(=O)c2[nH]c(C)c(C(=O)N/N=C/c3cccc(OC)c3O)c2C)c1O,"inconclusive: 15.8 µM [inhibitor, partial curve]"
10,Cc1csc(SCC(=O)Nc2nnc(C)s2)n1,"inconclusive: 6.31 µM [inhibitor, single point]"
11,CCOC(=O)c1c(C)oc2c1c1c(c3ccccc32)OCN(CCCC(=O)O)C1,"inconclusive: 9.98 µM [inhibitor, partial curve]"
12,CC(C)OC(=O)CC1C(=O)NCCN1C(=S)NC(=O)c1ccc(F)cc1 (stereo not drawn),active: 15.8 µM
13,Cc1ccnc(NC(c2ccccc2O)c2oc(CO)cc(=O)c2O)c1 (stereo not drawn),"inconclusive: 15.8 µM [inhibitor, partial curve]"
14,O=C(NC(=S)Nc1c(Cl)ccc2nsnc12)c1ccccc1F,"inconclusive: 28.2 µM [inhibitor, single point]"
15,Cc1[nH][nH]c(=O)c1C(c1ccc([N+](=O)[O-])cc1)c1c(C)[nH][nH]c1=O,"inconclusive: 17.7 µM [inhibitor, partial curve]"
16,Cc1nn(-c2ccccc2)c(C)c1/C=N/Nc1nc2ccccc2[nH]1,active: 19.9 µM
17,Cc1cccc(Sc2nc(-c3ccccc3)ncc2C(=O)O)c1,"inconclusive: 17.7 µM [activator, single point]"
18,O=C(CN1CCN(c2ncccn2)CC1)Nc1ccccc1-n1cccc1,"inconclusive: 15.8 µM [inhibitor, partial curve]"
19,Cc1ccc(CN2CCN(c3ncccn3)CC2)c(C)c1,"inconclusive: 28.2 µM [inhibitor, partial curve]"
20,Oc1c(Br)cc(Br)cc1CNc1ccc(F)cc1,"inconclusive: 6.29 µM [inhibitor, partial curve]"
21,c1ccc(OCc2nnc3n2N=C(c2ccccc2)CS3)cc1,"inconclusive: 2.81 µM [inhibitor, full curve]"
22,N#CC1=C(C=Nc2ccccc2O)CCC1,"inconclusive: 14.1 µM [inhibitor, partial curve]"
23,C=C(C)CNC(=S)N/N=C/c1ccccc1OCC(=O)O,active: 17.7 µM
24,CC(C)C(c1nnnn1C1CCCCC1)N1CCc2ccccc2C1 (stereo not drawn),"inconclusive: 11.2 µM [inhibitor, partial curve]"

row,Structure (SMILES),Potency
1,Cc1cc(=O)[nH]c(NN=C2CCC(C(C)(C)C)CC2)n1 (stereo not drawn),"inconclusive: 15.8 µM [inhibitor, single point]"
2,O=S(=O)(Nc1nc2c(s1)CCCC2)c1ccc(Br)cc1,inactive
3,O=c1c2ccccc2nc(SCc2ccc([N+](=O)[O-])cc2)n1-c1ccc(Cl)cc1,inactive
4,CCc1nccn1S(=O)(=O)c1ccc2ccc(C)cc2c1,"inconclusive: 25.1 µM [inhibitor, single point]"
5,C=CCSc1nc2ccccc2[nH]1,"inconclusive: 14.1 µM [inhibitor, partial curve]"
6,CCOC(=O)c1cnc(-n2nc(C)cc2C)[nH]c1=O,active: 4.46 µM
7,CS(=O)(=O)c1ccc(Cl)c(NC(=O)COC(=O)c2c(Cl)cccc2Cl)c1,inactive
8,O=C(Cc1ccc(F)cc1)Nc1nccs1,inactive
9,O=C(c1ccc([N+](=O)[O-])cc1[N+](=O)[O-])n1cnc2ccccc21,"inconclusive: 3.54 µM [inhibitor, partial curve]"
10,Cc1cc(C)c(S(=O)(=O)Nc2ncn[nH]2)cc1C,"inconclusive: 10 µM [inhibitor, partial curve]"
11,CN1CCN(NC(=O)CN2C(=O)/C(=C/c3ccccc3Cl)SC2=S)CC1,"inconclusive: 25.1 µM [inhibitor, single point]"
12,Fc1ccc(Nc2nnc(C(F)(F)F)s2)cc1Cl,inactive
13,CCOC(=O)CCCCC(=O)c1[nH]c(=O)[nH]c1CSc1nc(C)cc(C)n1,inactive
14,CCC(c1n[nH]c(=S)n1-c1ccccc1)N(C)C (stereo not drawn),"inconclusive: 19.9 µM [inhibitor, partial curve]"
15,CCN(CC)CC(=O)Nc1c(C)cccc1C,inactive
16,CN(Cc1ccccn1)C(=O)CC1C(=O)NCCN1Cc1cccc(Oc2ccccc2)c1 (stereo not drawn),inactive
17,O=C(Cc1ccccc1)NNC1=NS(=O)(=O)c2ccccc21,inactive
18,COc1cccc(C(=O)NC(=S)Nc2ccc(Cl)c(C(=O)O)c2)c1,"inconclusive: 39.8 µM [inhibitor, single point]"
19,O=C1OC(c2ccccc2)=N/C1=C\C=C\c1ccco1,inactive
20,CCCC(=O)Nc1ccc(C#Cc2ccccc2)cc1,inactive
21,O=C(Nc1nnc(SCCN2CCOCC2)s1)C1CC(=O)N(c2ccccc2)C1 (stereo not drawn),"inconclusive: 28.2 µM [inhibitor, single point]"
22,CCOC(=O)C(C)N1N=C(/C=C/c2ccc(C)cc2)CCC1=O (stereo not drawn),"inconclusive: 31.5 µM [activator, single point]"
23,CCOc1ccccc1NC(=O)c1c(NC(=O)CCC(=O)O)sc2c1CCCCC2,"inconclusive: 19.9 µM [inhibitor, single point]"
24,N/C(=N\OC(=O)CC(c1ccccc1)c1ccccc1)c1cccnc1,inactive
